SMILES strings stand for the structures. Among all 150,000 compounds or so, about 540 (0.36%) showed an effect of 50% or more. Some of the results follow.

For the assay, the system named is Plasmodium falciparum. Nature of the assay: Primary screen in NF54 nanoGlo assay, in single point, at 2uM, 72h; a lower Z score goes with more inhibition. The class given is functional, Erythrocyte. As to conditions: timepoint 72 hour.
As to `CCCCS(=O)(=O)N(C)Cc1cccnc1OCC`, the % Inhibition – broadly, the relative decrease from the control value, in per cent – is listed as 34% and the Z score is recorded as -3.86.

Regarding `Cc1nc(N(C)C)nc(-c2ccc(F)c3cccnc23)c1C`, the “% Inhibition” value was found to be 5% and the Z score is listed as -0.76.

`CC(C)c1cc(CNC(=O)c2cccc(=O)[nH]2)no1`: the “% Inhibition” value is -4% and the Z score is on record as 0.77.

Take `Cc1ccccc1OC[C@H](C)n1cnc2nccnc2c1=O`: the “% Inhibition” value is on record as -3% and the Z score turned out to be 0.43.

For the compound `Cc1nc2sccn2c1CN(C)S(=O)(=O)C1CC1`, the “% Inhibition” value is -2% and the Z score came out at 0.2.

On to `Cc1c(Cn2cnc3nccnc3c2=O)oc2ccccc12`, for which the “% Inhibition” value is -12% and the Z score came to 1.41.

For the compound `O=C(c1cnsn1)N1CCOC2CCCCC21` (stereo not given), the “% Inhibition” value was -6% and the Z score was 0.95.

As to `O=C1N(c2cccc(Cl)c2)c2ncccc2S(=O)(=O)N1Cc1ccccc1`, the “% Inhibition” value is -4% and the Z score is recorded as 0.5.

Consider `CCn1nc(C)c(-c2csc(COC(C)C)n2)n1`, for which the “% Inhibition” value was -1% and the Z score is given as 0.18.

Turning to `CC(C)(C)C1CCC(CC(=O)Nc2nc(CS(C)(=O)=O)no2)CC1` (stereo not given), the “% Inhibition” value is recorded as -8% and the Z score was found to be 1.2.

With `Cc1cccc(N2C(=O)[C@H]3[C@@H](C2=O)[C@]2(C(=O)Nc4c2ccc(C)c4C)N2CCC[C@@H]32)c1C`, the “% Inhibition” value worked out at 6% and the Z score was -0.58.

For `Clc1ccc(-c2csc3ncnc(N4CCC[C@H](C5OCCO5)C4)c23)cc1`, the “% Inhibition” value is given as -11% and the Z score came to 1.67.

For the compound `COc1ccc(NC(=O)c2cnc(O[C@H]3CCOC3)c(Cl)c2)cn1`, the “% Inhibition” value is reported as -16% and the Z score is on record as 3.03.

Regarding `Cc1noc(C)c1CN1CC[C@H](NC(=O)CCc2ccncc2)[C@@H](O)C1`, the “% Inhibition” value is listed as 8% and the Z score is on record as -0.7.

Consider `Cc1cc(NC(=O)Nc2ccccc2CC(=O)OC(C)(C)C)[nH]n1`, for which the “% Inhibition” value is on record as -1% and the Z score was 0.09.

For the compound `COCCC(=O)N(C)c1ccc(Cl)cn1`, the “% Inhibition” value turned out to be 14% and the Z score is listed as -1.53.

For the compound `O=C(Cc1ccccc1Cl)N1C2CCC1CC(n1ccnc1)C2` (stereo not given), the “% Inhibition” value was -21% and the Z score turned out to be 2.66.

In the case of `Cc1cc(C)cc(C(O)CN2CCCC(C3(C)NC(=O)NC3=O)C2)c1` (stereo not given), the “% Inhibition” value is on record as -1% and the Z score stood at 0.14.

For `COCCc1ncc(CN[C@H]2CCCN(CCCc3ccccc3)C2)cn1`, the “% Inhibition” value is -21% and the Z score came out at 3.1.

For `Cc1cccn2c(CC(=O)Nc3cnn4c3NCCC4)cnc12`, the “% Inhibition” value is reported as -9% and the Z score came to 0.82.

As to `CCCN(CCC(=O)NCCN1CCOCC1)c1nc(-c2cccc(Br)c2)nc2ccccc12`, the “% Inhibition” value is given as -9% and the Z score is reported as 1.2.

Consider `Cc1nc(-c2csc(CN(C)C)n2)n(CC2CCCCC2)n1`, for which the “% Inhibition” value was 0% and the Z score stood at 0.

As for `CCNC(=O)NC1(CC2CC2)CCN(S(=O)(=O)c2cc(OC)ccc2OC)CC1`, the “% Inhibition” value is listed as -8% and the Z score was found to be 1.45.

In the case of `COc1cc(NC(=O)N[C@H]2CCCc3c(F)cccc32)n(C)n1`, the “% Inhibition” value is -4% and the Z score is 0.72.

Turning to `Cc1nonc1OCCN[C@@H](C)C(=O)Nc1nccs1`, the “% Inhibition” value is on record as -8% and the Z score is recorded as 0.99.

With `CCOC(=O)CC1(NC(=O)N2CC[C@H](c3nc4cccnc4n3C)C2)CCCCC1`, the “% Inhibition” value is -5% and the Z score was 0.65.

As for `CCCCN=C(NCc1nnc2n1CCCCC2)N1CCCC1`, the “% Inhibition” value is on record as 8% and the Z score was -1.07.

On to `Cc1n[nH]c(C)c1CCNc1nccc(C2CCCC2)n1`, for which the “% Inhibition” value turned out to be 2% and the Z score is -0.41.

Turning to `Cn1cc(NC(=O)NCC[C@@H]2CCCC[C@@H]2O)c(C(F)(F)F)n1`, the “% Inhibition” value is on record as -3% and the Z score came out at 0.65.

Take `CCn1c(=O)c(-c2nc(-c3ccncc3)no2)c(O)c2ccccc21`: the “% Inhibition” value is recorded as 0% and the Z score is recorded as -0.01.

As to `Cc1oc(C(C)C)nc1C(=O)NC[C@@H]1OCCc2sc(F)cc21`, the “% Inhibition” value was -9% and the Z score turned out to be 1.64.

`CC(C)Cn1ncc(C(=O)N2CCCN(Cc3cnn(C)c3)CC2)c1C1CC1`: the “% Inhibition” value is listed as -8% and the Z score is reported as 0.94.

As to `CC(=O)N1CC2(CCN(c3nc(C)cc(C)n3)CC2)[C@H]2COC[C@H]21`, the “% Inhibition” value is listed as -9% and the Z score was found to be 1.35.

Regarding `CC(=O)Nc1ccc(S(=O)(=O)NCc2ccc(C(=O)N(C)C3CCCCC3)cc2)cc1`, the “% Inhibition” value is -8% and the Z score was determined as 1.46.

On to `CC(=O)N1CCCN(C(=O)c2cn3ccc(C)cc3n2)CC1`, for which the “% Inhibition” value came to 0% and the Z score was 0.

As for `Cc1ccc(CN2CCNC(=O)[C@@H]2CC(=O)Nc2ccc3oc(C)cc3c2)o1`, the “% Inhibition” value is recorded as -3% and the Z score is on record as 0.49.

In the case of `COc1ccc(-c2cc(C(C)=O)c(C)n2CCC(=O)NC2CCCC2)cc1`, the “% Inhibition” value is -1% and the Z score is 0.19.

As to `O=C(c1cccc2nn[nH]c12)N1C2CCC1CC(CC(F)(F)F)C2` (stereo not given), the “% Inhibition” value came out at 6% and the Z score was -0.66.

As for `O=C(NCC[C@@H](CCO)c1ccccc1)C(=O)Nc1ccon1`, the “% Inhibition” value is reported as -3% and the Z score was found to be 0.45.

As for `COc1cc2c(cc1Cl)CN(Cc1cc(C)on1)CC2`, the “% Inhibition” value is -5% and the Z score came out at 0.89.

Regarding `CC(C)CC(C)OC(=O)N1CCCCC1CNS(N)(=O)=O` (stereo not given), the “% Inhibition” value is -6% and the Z score worked out at 0.85.

Regarding `CCCCn1ncnc1[C@H](C)n1cnc2ccccc2c1=O`, the “% Inhibition” value is on record as -3% and the Z score was found to be 0.36.

`c1cncc(COc2cccc(-c3noc(-c4cnccn4)n3)c2)c1`: the “% Inhibition” value is on record as -27% and the Z score is 2.72.

Regarding `Cc1ccccc1CC(=O)N[C@@H](C)c1nnc2n1CCCCC2`, the “% Inhibition” value is listed as -12% and the Z score was found to be 1.53.

Take `O=C1N(CCCc2ccccc2)CCC[C@@]1(O)CN1CCC(CCO)CC1`: the “% Inhibition” value is listed as 6% and the Z score was -0.81.

With `O=C(c1ccc(Cl)cc1)N1CCCN(c2nc(C3CC3)nc3c2cnn3-c2ccccc2)CC1`, the “% Inhibition” value is -14% and the Z score is 1.47.

For `CCCn1nccc1S(=O)(=O)N1CCOC(C)(C)C1`, the “% Inhibition” value was found to be 0% and the Z score worked out at 0.07.

As for `Cc1ccc(CCNC(=O)Cn2nc(C)c(C)cc2=O)o1`, the “% Inhibition” value is -5% and the Z score stood at 0.75.

Regarding `C=CCN(C)C(=O)c1c(F)cc(F)cc1F`, the “% Inhibition” value is recorded as -2% and the Z score came out at 0.22.

Consider `COc1ccc(C2C3C(C)=NN=C3CC(C)(O)C2C(C)=O)cc1` (stereo not given), for which the “% Inhibition” value was -1% and the Z score amounted to 0.13.

On to `CCOC(=O)N1CCN(Cc2cnoc2-c2cccc(OC)c2)CC1`, for which the “% Inhibition” value is on record as 0% and the Z score amounted to 0.09.

On to `O=c1[nH]c(N2CCC(N3CCCC3)CC2)nc2c1Cc1ccccc1OC2`, for which the “% Inhibition” value is 1% and the Z score is -0.21.

For the compound `Cc1csc(S(=O)(=O)N[C@H]2CCOC[C@@H]2OCc2ccccc2)c1`, the “% Inhibition” value was -10% and the Z score is recorded as 1.04.

For the compound `CCn1nc(CC(C)C)cc1C(=O)N1CCc2ncccc2C1`, the “% Inhibition” value is on record as -7% and the Z score amounted to 1.05.

Regarding `O=C(c1ccc(NCCc2ccccn2)cc1)N1CC[C@H](CCO)C1`, the “% Inhibition” value is given as 1% and the Z score was -0.1.

These data come from ChEMBL document CHEMBL4888484, “Replenishing the malaria drug discovery pipeline: Screening and hit evaluation of the MMV Hit Generation Library 1 (HGL1) against asexual blood stage Plasmodium falciparum ,using a nano luciferase reporter read-out” (2022).
